Measured values taken from the RNAGym collection of RNA variant scans (doi:10.1093/nar/gkz1192).
Read counts are not given, so values of variants with three or more changes are uncertain.

B1: CPEB3 Ribozyme (parent)
chain: UAACAGGGGGCCACAGCAGAAGCGUUCACGUCGCAGCCCCUGUCAGAUUCUGGUGAAUCUGCGAAUUCUGCUGUAUAUCUC

Variants of: B1
Assay: self-cleavage, relative activity (ratio to wild type); higher = more cleavage; in vitro, sequencing
Procedure, shortened: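 For each CPEB3 ribozyme variant, relative activity is its cleaved/total read fraction divided by the unmutated ribozyme's. Barcoded error-prone PCR libraries were transcribed by T7 RNA polymerase (5 hours, 37°C) and held in DNase I for 15 min before an EDTA stop, with cleavage occurring throughout. Template-switching reverse transcription and Illumina sequencing were used to read the RNAs. A 5-read minimum applied, and results are the mean of three batches.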

| Variant | self-cleavage |
| --- | --- |
| UAACAGGGGGCCACACCAGAAGCGCUCACGUCGCAGCCCCAGUCAGAUUCUGGUGAAUCAGCGAAUUCUGCUGUAUAUCUC [G16C U25C U41A U60A] | 0.13 |
| UAACAGGGGGCCACACCAGAAGCGCUCACGUCGCAGCCCCUGUCAGAUUCUGGCGAAUCUGCGAACUCUGCAGUAUACCUC [G16C U25C U54C U66C U72A U78C] | 0.06 |
| UAACAGGGGGCCACACCAGAAGCGUCCACGUCGCAGCCCCUGUCCGAUUCUGGAGAGUCUGCGAAUUCUGCUGUAUAUCUC [G16C U26C A45C U54A A57G] | 0.14 |
| UAACAGGGGGCCACACCAGAAGCGUCCACGUCGCAGCCCCUGUCAGAUCCUGGUGAAUCUGCGAAUUCUGCUGUAUUACUC [G16C U26C U49C A77U U78A] | 0.27 |
| UAACAGGGGGCCACACCAGAAGCGUCCACGUCGCAGCCCCUGUCAGAUUCUGGUGAAUCCGCGAAUUCUGCUGUAUAUCUC [G16C U26C U60C] | 0.54 |
| UAACAGGGGGCCACACCAGAAGCGUUCACGCCGCAGCCCCUGUCAGUUUCUGGUGAAUCCGCGAAUUCUGCUGUGUAUCUC [G16C U31C A47U U60C A75G] | 0.06 |
| UAACAGGGGGCCACACCAGAAGCGUUCACGGCGCAGCCCCUGUCCGAUUCUGGCGAAUCUGCGAAUUCUGCUGUGUAUCUC [G16C U31G A45C U54C A75G] | 0.06 |
| UAACAGGGGGCCACACCAGAAGCGUUCACGUCGCAGCCCCAGUCAGAUUCUGGUGAAUCUGCGAAUUCCGCUGUAUAUCUC [G16C U41A U69C] | 0.08 |
| UAACAGGGGGCCACACCAGAAGCGUUCACGUCGCAGCCCCUGUCAGAUUCUGGUGAACCUGCGAAUUCUGCCGUAUAUCUC [G16C U58C U72C] | 0.25 |
| UAACAGGGGGCCACACCAGAAGCGUUCACGUCGCAGCCCCUGUCAGAUUCUGGUGAAUCAGCGAACUCUGCUCUAUAUCUC [G16C U60A U66C G73C] | 0.07 |
| UAACAGGGGGCCACAUCCGUAGCGUUCACGUCGCAGCCCCUGUCAGAUUCUGGUGAAUCUGCGAAUUCUGCUGUAUAUCUC [G16U A18C A20U] | 0.18 |
| UAACAGGGGGCCACAUCGGAAGCGUUCACGUCGCAACCCCCGUCAGAUUUUGGUGAAUCUGCGAAUUAUGCAGUAUAUCUC [G16U A18G G36A U41C C50U C68A U72A] | 0.05 |
| UAACAGGGGGCCACAUCGGAAGCGUUCACGCCGCAGCCCCUGUCAGAUUCUGGUGAAUCUGCGAAUUCUGCUGUAUAUCUC [G16U A18G U31C] | 0.25 |
| UAACAGGGGGCCACAUCGGAAGCGUUCACGUCGCAGCCCCUGUCAGAUUCUGGUGAAUCUGCGAAUUCUGCCGUAUAUCUC [G16U A18G U72C] | 0.22 |
| UAACAGGGGGCCACAUCUGAAGCGAUCACGUCGCUGCCCCUGUCAGAUUCUGGUGAAUCUGCGAAUUCUGCUGUAUAUCUC [G16U A18U U25A A35U] | 0.19 |
| UAACAGGGGGCCACAUCAGGAGCGUUCACGUCGCACCCCCUGGCAGAUUCCGGUGUAUCUGCGAAUUCUGCUGUAUAUCUC [G16U A20G G36C U43G U51C A56U] | 0.06 |
| UAACAGGGGGCCACAUCAGGAGCGUUCACGUCGCAGCCCCUGUCAGAAUCUGGUGAGUCUGCGAAUUCAGCUGUAUAUCUC [G16U A20G U48A A57G U69A] | 0.17 |

| Variant | self-cleavage |
| --- | --- |
| UAACAGGGGGCCACAUCAGUAGCGUUCACGUCGCAGCCCCUGUCAGACUCUGGUGAAUCUGCGAAUUCUGCUGUAUAACUC [G16U A20U U48C U78A] | 0.5 |
| UAACAGGGGGCCACAUCAGAGGCGUUCACGUCGCAGCACCUGUCAGAUUCUGGUGAAUCUGCGAAUUCUGCUGUAUAUCUC [G16U A21G C38A] | 0.45 |
| UAACAGGGGGCCACAUCAGAGGCGUUCACGUCACAGCCCCUGUCAGAUUCUGGCGAAUCAGCGAAUUCUGCUGUAUAUCUC [G16U A21G G33A U54C U60A] | 0.07 |
| UAACAGGGGGCCACAUCAGAUGCGUUCACGUCGCAGCCCCUGUCAGAUUCUGGUGAAUCUGCGUAUUCUGCUGUACAUCUC [G16U A21U A64U U76C] | 0.06 |
| UAACAGGGGGCCACAUCAGAAGCGUUCGCGUCGCAGCCCCUGUCAGAUUCUGGUGAAUCUGCGAAUUCUGCUGUAUAUCUU [G16U A28G C81U] | 0.19 |
| UAACAGGGGGCCACAUCAGAAGCGUUCACGUCGCAGCCCCUGUCGGAUUCUGGUGAAUCUGCGAAUUCUGCUGUAUAUCUU [G16U A45G C81U] | 0.19 |
| UAACAGGGGGCCACAUCAGAAGCGUUCACGUCGCAGCCCCUGUCAGUUUCUGGUGAUUCUGCGAGUUCUGCCGUAUAUCUC [G16U A47U A57U A65G U72C] | 0.07 |
| UAACAGGGGGCCACAUCAGAAGCGUUCACGUCGCAGCCCCUGUCAGAUUCUGGUGAGUCUGCGUAUUCUGUUGUAUAUCUC [G16U A57G A64U C71U] | 0.07 |
| UAACAGGGGGCCACAUCAGAAGCGUUCACGUCGCAGCCCCUGUCAGAUUCUGGUGAAUCUGCGAAUUCUGCUGUAUUCCUC [G16U A77U U78C] | 0.33 |
| UAACAGGGGGCCACAUCAGAAGCGUUCACGUCACAGCCCCUGUCAGAUUCUGGUGAAUCUGCGAAUUCUGCUGUAUACCAC [G16U G33A U78C U80A] | 0.17 |
| UAACAGGGGGCCACAUCAGAAGCGUUCACGUCGCAGCCCCUGUCAGAUUCUUGUGAGUCUGCGAAUUCUGCUGUAUAUCUC [G16U G52U A57G] | 0.32 |
| UAACAGGGGGCCACAUCAGAAGCGAUCUCGUCGCAGCCCCUGUCAGAUUCUGGUGAAUCUGCGAAUUCUGCUGUAUAUCUC [G16U U25A A28U] | 0.26 |
| UAACAGGGGGCCACAUCAGAAGCGAUCACGUCGCGGCCCCUGUCAGAUUCUGGUGAAUCUGCGAAUUCUGCUGUUUAUGUC [G16U U25A A35G A75U C79G] | 0.18 |
| UAACAGGGGGCCACAUCAGAAGCGAUCACGUCGCAGCCCCAGUCUGAUUCUGGUGAAUCUGCGAAUUCUGCAGUAUAUCUC [G16U U25A U41A A45U U72A] | 0.12 |
| UAACAGGGGGCCACAUCAGAAGCGCUCACGUCGCAGCCCCUGUCGGAUUCUGGUGAAUCUGCGAACUCUGCUGUAUAUCUC [G16U U25C A45G U66C] | 0.07 |
| UAACAGGGGGCCACAUCAGAAGCGUACACGUCGCAGCCCCAGUCAGAUUCUGGUGAAUCUGCGAAUUCUGCUGUAUAUCAC [G16U U26A U41A U80A] | 0.08 |
| UAACAGGGGGCCACAUCAGAAGCGUACACGUCGCAGCCCCUGUCAGAUACUGGUGAAUCUGCGAAUACUUCUGUAUAUCUC [G16U U26A U49A U67A G70U] | 0.05 |
